The densities may have been worked out from excess volumes.
Assay: xn = mol fraction of the nth substance listed
Conditions: 100 kPa

CCC[NH3+].O=C[O-] + O
mass density [kg/m3]
Conditions	293.15 K	298.15 K	303.15 K	308.15 K	313.15 K	318.15 K	323.15 K	328.15 K	333.15 K
x2 = 0	996.1	993.4	990.8	988.1	985.4	982.7	980.1	977.4	974.8
x2 = 0.0505	997.7	994.9	992.2	989.5	986.8	–	981.4	978.7	976.1
x2 = 0.1036	999.1	996.4	993.7	991	988.3	985.6	983	980.3	977.6
x2 = 0.2456	1004	–	998.6	–	–	990.5	987.8	–	–
x2 = 0.2838	–	1003	1000.3	997.6	994.8	992.1	–	986.7	–
x2 = 0.429	1012.7	1009.8	–	–	1001.6	998.8	996.1	993.4	990.6
x2 = 0.5184	1017.9	–	1012.3	1009.4	1006.6	1003.8	1000.9	998.1	–
x2 = 0.6064	–	–	1017.1	1014.2	1011.4	1008.6	1005.7	–	1000
x2 = 0.6994	1027.1	1024.3	1021.4	1018.6	1015.7	1012.9	1010	1007.1	1004.1
x2 = 0.8008	1030.6	1027.8	1025.1	–	1019.3	–	1013.6	1010.6	1007.7
x2 = 0.9026	1027.2	1024.8	–	1019.6	1017	1014.2	1011.4	1008.6	1005.7

CC(=O)[O-].CCC[NH3+] + O
mass density [kg/m3]
Conditions	293.15 K	298.15 K	303.15 K	308.15 K	313.15 K	318.15 K	323.15 K	328.15 K	333.15 K
x2 = 0	989.9	986.9	983.8	980.7	977.6	974.6	–	968.4	965.3
x2 = 0.0494	995.1	991.9	988.7	985.6	982.4	979.2	976	972.9	969.7
x2 = 0.1004	998.2	995.1	992	988.9	985.8	982.7	–	976.5	973.4
x2 = 0.2096	1003.6	1000.4	997.2	–	990.9	987.7	–	981.3	–
x2 = 0.2992	1007.4	1004.3	–	998.1	994.9	991.8	988.7	985.6	982.3
x2 = 0.3878	1011	1008	1004.9	1001.8	998.7	995.5	992.4	989.2	–
x2 = 0.5035	1016	1013	1010	1006.9	1003.8	1000.6	997.5	994.3	–
x2 = 0.6067	1020.1	1017	1013.8	–	1007.5	1004.3	–	–	994.7
x2 = 0.6965	1023.9	1020.7	1017.6	1014.4	–	1008	1004.8	1001.6	998.3
x2 = 0.7999	1027.8	1024.7	1021.6	1018.5	1015.3	1012.1	1008.9	1005.6	1002.3
x2 = 0.9022	1025.9	1022.6	1019.7	1016.4	1013.4	1010.3	1006.9	1003.5	–

CC(=O)[O-].CCC[NH3+] + CN1CCCC1=O
mass density [kg/m3]
Conditions	293.15 K	298.15 K	303.15 K	308.15 K	313.15 K	318.15 K	323.15 K	328.15 K	333.15 K
x2 = 0	989.9	986.9	–	980.7	977.6	–	–	968.4	–
x2 = 0.05	990.6	987.3	–	980.8	–	974.3	971.1	967.9	964.6
x2 = 0.0978	991.3	988.1	984.8	981.5	978.3	975	971.7	968.4	965.2
x2 = 0.1978	994.9	991.5	988.1	984.7	–	977.9	974.6	971.2	967.8
x2 = 0.3095	999.7	996.2	992.6	989.1	985.5	–	–	974.9	971.2
x2 = 0.3891	1003.3	999.7	996	992.4	988.7	985.1	–	–	973.8
x2 = 0.4931	1008.1	1004.4	1000.6	996.8	993	989.1	985.3	981.4	977.4
x2 = 0.599	1013.2	1009.3	–	1001.4	997.4	993.4	989.4	985.4	–
x2 = 0.7001	1018.4	1014.3	–	1006.1	1001.9	–	993.5	989.2	984.9
x2 = 0.7998	–	1019.4	1015.1	1010.8	–	1002.1	–	–	988.7
x2 = 0.891	–	1023.9	1019.5	1015	1010.5	1006	1001.5	996.9	992.3

CCC[NH3+].O=C[O-] + CN1CCCC1=O
mass density [kg/m3]
Conditions	293.15 K	298.15 K	303.15 K	308.15 K	313.15 K	318.15 K	323.15 K	328.15 K	333.15 K
x2 = 0	–	993.4	–	988.1	985.4	982.7	980.1	977.4	974.8
x2 = 0.0494	999.6	996.7	993.9	–	988.3	985.5	–	980	977.2
x2 = 0.1047	1002.5	999.5	996.7	993.8	–	988.1	985.3	982.5	979.6
x2 = 0.1953	1006.9	1003.9	1000.7	997.8	994.8	991.8	988.7	985.7	982.7
x2 = 0.3021	–	1008.2	1005.1	–	998.7	995.5	992.3	989	985.8
x2 = 0.4205	1016.6	–	–	1006.2	1002.8	999.4	995.9	992.5	989
x2 = 0.5063	1019.6	1016	1012.5	1008.9	1005.3	–	998.1	994.6	990.9
x2 = 0.6001	1022.8	1018.9	1015.2	1011.5	1007.8	1004	–	–	992.7
x2 = 0.7075	1026.2	1022.3	1018.3	1014.5	1010.5	1006.5	1002.6	998.6	–
x2 = 0.7986	–	–	1020.7	1016.5	–	1008.4	1004.3	1000.1	–
x2 = 0.9048	–	1026.9	1022.4	–	1013.9	1009.7	1005.3	1001	996.6

Reference: a compilation of properties of binary mixtures (doi:10.1016/j.molliq.2016.04.040)
